Measured values taken from article PMC4336329 (PLoS ONE, 2015).
In all, about 310,000 compounds went through this assay and about 14,000 (4.5%) showed an effect of 50% or more. The effect is printed as a negative number. The list shows a part of the results.

Biological target: human ether-à-go-go-related gene (hERG) potassium channel (human, UniProt Q12809)
Assay: primary screen, population patch clamp on CHO cells stably expressing hERG
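Also: peak tail current of the secondary pulse compared with the same well before compound.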

human ether-à-go-go-related gene (hERG) potassium channel, sequence (Q12809 whole entry, looked up): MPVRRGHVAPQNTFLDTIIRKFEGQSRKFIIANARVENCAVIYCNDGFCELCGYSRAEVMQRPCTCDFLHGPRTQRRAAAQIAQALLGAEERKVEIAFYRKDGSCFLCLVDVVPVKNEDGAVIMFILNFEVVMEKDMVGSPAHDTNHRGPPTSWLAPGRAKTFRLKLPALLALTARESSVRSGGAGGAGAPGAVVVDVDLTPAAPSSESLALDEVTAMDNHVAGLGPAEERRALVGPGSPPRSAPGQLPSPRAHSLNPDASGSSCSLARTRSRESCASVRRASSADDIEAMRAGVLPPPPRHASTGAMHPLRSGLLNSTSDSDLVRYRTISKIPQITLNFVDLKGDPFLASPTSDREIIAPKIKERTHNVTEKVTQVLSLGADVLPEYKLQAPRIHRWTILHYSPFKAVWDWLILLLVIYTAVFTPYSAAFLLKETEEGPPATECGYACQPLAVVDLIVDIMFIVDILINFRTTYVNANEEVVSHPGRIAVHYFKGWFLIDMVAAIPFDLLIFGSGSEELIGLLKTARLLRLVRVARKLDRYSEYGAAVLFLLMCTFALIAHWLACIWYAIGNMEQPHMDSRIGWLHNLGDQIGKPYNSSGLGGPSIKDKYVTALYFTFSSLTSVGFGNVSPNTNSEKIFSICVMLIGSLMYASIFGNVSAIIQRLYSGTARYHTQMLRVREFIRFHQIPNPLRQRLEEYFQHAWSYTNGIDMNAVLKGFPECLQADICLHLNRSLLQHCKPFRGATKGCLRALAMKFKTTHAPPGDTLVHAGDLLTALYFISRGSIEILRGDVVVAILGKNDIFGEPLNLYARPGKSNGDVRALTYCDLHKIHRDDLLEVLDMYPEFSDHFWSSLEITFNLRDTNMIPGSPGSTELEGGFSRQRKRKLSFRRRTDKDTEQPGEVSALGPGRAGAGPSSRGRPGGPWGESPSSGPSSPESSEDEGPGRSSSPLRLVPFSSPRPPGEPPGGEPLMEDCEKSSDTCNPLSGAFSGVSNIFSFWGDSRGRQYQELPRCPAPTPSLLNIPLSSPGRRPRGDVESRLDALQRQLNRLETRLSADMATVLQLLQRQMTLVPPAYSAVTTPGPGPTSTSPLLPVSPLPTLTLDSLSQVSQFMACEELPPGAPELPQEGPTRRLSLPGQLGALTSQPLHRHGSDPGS

SMILES	hERG current change (%, negative = inhibition) at 10uM [%]
COc1cc(CNCCc2ccccc2)ccc1OCc1ccc(Cl)nc1.Cl	-39.5
CCOC(=O)C1=C(N)OC2=C(C(=O)CCC2)C1c1cccs1 (stereo not drawn)	1.13
Cc1ccc(C(=O)N/C(=C\c2ccco2)C(=O)N2CCOCC2)cc1C	11
CN(C)S(=O)(=O)c1cccc(-c2csc(=Nc3ccccc3)n2CCCN2CCOCC2)c1	-26.5
COC(=O)/C=C1/SC(=Nc2ccc(Cl)c(Cl)c2)NC1=O	5.87
CN1CCc2c(sc(NC(=O)C3CCN(S(=O)(=O)c4cccs4)CC3)c2C(N)=O)C1.Cl	-30.8
Cn1c2ccc(Br)cc2c2nnc(SCC(=O)O)nc21	12.1
CCCC(=O)Nc1nnc(Cc2ccccc2)s1	-0.72
Cc1cc(OCCCCN2C(=O)NC(C)(C)C2=O)ccc1[N+](=O)[O-]	0.319
O=C(CN(C(=O)CNS(=O)(=O)c1ccc(F)cc1)C1CCCC1)NCc1ccco1	-9.76
C=CCN(CC=C)S(=O)(=O)c1ccc(NC(=S)NC(=O)c2ccco2)cc1	9.12
Cc1nn(Cc2ccc(Cl)c(Cl)c2)c(C)c1NC(=O)c1cc(-c2ccc3c(c2)OCO3)on1	6.42
CCCCC(Sc1nc(N)c(NC(=O)c2ccco2)c(=O)[nH]1)C(=O)O (stereo not drawn)	13.6
COc1ccc(C(=O)Cc2cc3cccc(OC)c3oc2=O)cc1	11.9
O=C(N/N=C/c1c(Cl)cccc1Cl)c1n[nH]c2c1CCCC2	-1.9
COc1ccccc1OCCCN1C(=O)C(=O)c2cccc(C)c21	-13.3
N#Cc1ccc(OCC(=O)NCC2(N3CCCCC3)CCCCC2)cc1	-78.2
O=C(NC1(C(F)(F)F)C(=O)Nc2c1c(=O)[nH]c(=O)n2Cc1ccco1)C1CC1 (stereo not drawn)	-0.499
CCCCNC(=O)C(=O)N/N=C/c1ccc(OCc2ccccc2)cc1	18.7
COc1ccccc1CNC(=O)CN(C)S(=O)(=O)c1ccc(F)cc1	16.8
Cc1cccc(NC(=O)Cn2c(=O)oc3ccccc32)c1	8.12
Brc1ccc(-c2nc3ncccn3c2NC2CCCCC2)o1	-25.9

SMILES	hERG current change (%, negative = inhibition) at 10uM [%]
O=C(Nc1ccccc1)NC1CCCCNC1=O (stereo not drawn)	21.4
COc1ccc(S(=O)(=O)N2CCC(C(=O)Nc3nnc(C)s3)CC2)cc1OC	15.9
COc1ccccc1CNC(=O)COC(=O)c1ccccc1SCC(=O)N1CCCC1	-13
COc1ccc(S(=O)(=O)N2CCCCCC2)cc1C(=O)Nc1cc(C)ccn1	-48
COCCN1C2=C(C(=O)CC(C)(C)C2)C(c2ccc(OC)c(OC)c2)C2=C1CC(C)(C)CC2=O	-9.47
CCCC(=NCC(=O)O)C1=C(O)C(C(=O)OC)C(C)(C)CC1=O (stereo not drawn)	10.1
O=C1NC(=S)N/C1=C/c1ccc2c(c1)OCO2	18
CNc1snc(C)c1C(=O)OC(C)C(=O)Nc1ccccc1 (stereo not drawn)	12.6
COc1ccc(/C=N/Nc2nc(N3CCCC3)nc(N3CCCC3)n2)cc1	-13.1
CCOC(=O)C1(Cc2cccc(F)c2)CCN(Cc2cnc(C)s2)CC1	-2.73
COc1cccc(N(CC(=O)Nc2cccc(N(C)S(C)(=O)=O)c2)S(C)(=O)=O)c1	3.24
CCN(C(=O)c1c(-c2ccccc2Cl)noc1C)C1CCCCC1	-0.584
O=[N+]([O-])c1cc(Cl)ccc1-c1nc(-c2ccncc2)no1	-10.3
CNC(=O)c1sc(SC)cc1-c1ccc(Cl)cc1	-4.92
CCOC(=O)CCC(=O)Nc1ccc(S(=O)(=O)N2CCc3ccccc32)cc1	20.1
CC(=N\O)/C(CN(C)C)=N/O	5.67
COC(=O)C1=C(C)OC(N)=C(C#N)C12C(=O)Nc1ccccc12 (stereo not drawn)	10.4
COc1cc(NC(=O)CSc2nncn2C)cc(OC)c1OC	14.1
CCCCCCCCCC(=O)Nn1cnc2ccccc2c1=O	0.742
N#CCCN(Cc1cccnc1)C(=S)NC1CC2C=CC1C2 (stereo not drawn)	2.95
Cc1ccccc1OCC(=O)N1CCCCCCC1	1.22
COc1cc(OC)cc(C(=O)Nc2nc(CC(=O)NCc3ccc(F)cc3)cs2)c1	0.373

SMILES	hERG current change (%, negative = inhibition) at 10uM [%]
O=C(Nc1ccc(-c2ccccc2)cc1)c1ccccc1	7.94
COC(=O)c1ccc(C)c(NC(=O)C2COc3ccccc3O2)c1 (stereo not drawn)	7.36
O=C(Cn1nc(Cc2ccncc2)c2ccccc2c1=O)Nc1cccnc1Cl	-2.53
COc1cccc(NC(=O)NNC(=O)CCc2ccc(O)c(O)c2)c1	26.9
CCN1CCCC1CNCc1ccccc1OCc1ccc(F)cc1.Cl (stereo not drawn)	-65
Cc1ccc2cc(CCNC(=O)c3ccc(S(=O)(=O)N4CCOCC4)cc3)c(=O)[nH]c2c1	-15.4
O=C(Nc1ccnn1C1CCN(Cc2ccc(CO)o2)CC1)c1ccccc1	1.16
CCCN(CC(=O)Nc1ccccc1OC)C(=O)c1ccc(S(=O)(=O)NCc2ccco2)cc1	-27.7
CCOc1ccc(/C=N/NC(=O)c2ccc(O)cc2)cc1CN1CC2CC(C1)c1cccc(=O)n1C2 (stereo not drawn)	4.7
COC(=O)CSc1nc2ncccc2[nH]1	-4.58
O=C(CSc1nnc(NC(=O)c2cccc(F)c2)s1)NC1CCCC1	13.9
CC1(c2nnc(-c3ccncc3)o2)CC(c2cccnc2)=NO1 (stereo not drawn)	13
O=C(/C=C/c1ccc(N2CCC(c3ccccc3)=N2)cc1)c1ccccc1	11.3
O=C(COC(=O)CNC(=O)c1ccccc1)NCCc1ccccc1	4.17
CCc1ccc(N2C(=O)CC(N3CCC(C(=O)OC)CC3)C2=O)cc1 (stereo not drawn)	-3.29
CC1(C)NCCN2C(=O)CSC21.Cl (stereo not drawn)	10.1
O=C(CCC(=O)OCc1ccc([N+](=O)[O-])cc1)Nc1ccc(F)cc1	4.29
Cc1nccn1CCN(C)Cc1cn(Cc2ccccc2)nc1-c1ccc2c(c1)OCO2	-60
Cc1onc(-c2ccccc2Cl)c1C(=O)Nc1ccc(-c2nnc3n2CCCCC3)cc1	-4.31
CCOC(=O)c1[nH]ncc1CN1CCCC(C(=O)c2ccc(C(C)(C)C)cc2)C1 (stereo not drawn)	-17.6
COc1ccc(NC(=O)CSc2nnc(Cc3ccc(C)cc3)c(=O)n2N)cc1	-4.36
CCC1CCCCN1C(=O)COC(=O)CSc1ccc(C(N)=O)cc1[N+](=O)[O-] (stereo not drawn)	-16.1

SMILES	hERG current change (%, negative = inhibition) at 10uM [%]
CCc1ccc(CN2CCN(C(=O)c3ccco3)CC2)cc1.O=C(O)C(=O)O	-23.8
O=C(OCCN1CCN(c2ncc(C(F)(F)F)cc2Cl)CC1)c1ccc(Cl)cc1	10.4
Cc1ccccc1CNC(=O)COc1ccccc1	4.39
COC(=O)c1cn(CCOc2ccccc2)c2ccccc12	6.29
CCSc1nc2c([nH]c3ccccc32)c(=O)n1C	0.208
Cc1ccc(C)c(N2CCN(CC(=O)Nc3ccc4[nH]c(=O)[nH]c4c3)CC2)c1	-3.56
O=C1/C(=C/c2cccc(F)c2)Oc2cc(O)ccc21	15.6
COCCn1c(C)cc(C(=O)CSc2nc3ccccc3c(=O)n2Cc2ccco2)c1C	-31.2
CCc1ccc(Nc2ncc3c(n2)CC(c2ccc(OC)cc2)CC3=O)cc1 (stereo not drawn)	-1.22
C#CCOCCOCCOCCNc1nc(N2CCN(C(=O)[C@H]([C@@H](C)CC)n3cc([C@@H](N)CC(C)C)nn3)CC2)nc(N2CCN(C(=O)[C@H](CCCCN)n3cc([C@@H](N)C(C)CC)nn3)CC2)n1.Cl (stereo partly drawn)	7.84
Cc1noc(C)c1COc1ccccc1C(=O)NNC(=O)c1ccc(F)cc1	-4.35
CC(C)OCCCn1c(SCC(=O)N2CCCC2=O)nc2ccccc2c1=O	-19.8
CCS(=O)(=O)CCSc1nc(C)cc(C)c1C#N	-0.949
CC(=O)N(C1=NCCCS1)c1ccccc1Cl	-1.34
Cc1cc(C)nc(NC2=NCC(=O)N2c2ccc(F)c(Cl)c2)n1	-6.65
COCCn1c(-c2ccc(OC(F)(F)C(F)C(F)(F)F)cc2)nc2c1c(=O)[nH]c(=O)n2CC(C)C (stereo not drawn)	-19.5
CN(Cc1ccccc1F)C(=O)CN1CCN(S(=O)(=O)c2ccc3c(c2)OCCCO3)CC1	-18.4
COc1cc(NC(=O)COC(=O)/C=C/c2ccc(OC)c(OC)c2)cc(OC)c1	1.13
CCCCCCOc1ccc(/C=N/NC(=O)C2CC2)cc1	11.6
O=C(/C=C\c1ccc2c(c1)OCO2)Nc1nnc(SCC(=O)OCc2ccccc2)s1	16.2
O=C(CCC(=O)NNC(=O)COc1ccc(Br)cc1)NCc1ccccc1	19.6
